Laboratory results taken from the BET-seq Pho4 binding data (Le et al. 2018).
Some of the results follow. These are noisy estimates, calculated here from bound and input reads.

Molecular target: T1, Pho4 (S. cerevisiae) (UniProt P07270)
T1 sequence: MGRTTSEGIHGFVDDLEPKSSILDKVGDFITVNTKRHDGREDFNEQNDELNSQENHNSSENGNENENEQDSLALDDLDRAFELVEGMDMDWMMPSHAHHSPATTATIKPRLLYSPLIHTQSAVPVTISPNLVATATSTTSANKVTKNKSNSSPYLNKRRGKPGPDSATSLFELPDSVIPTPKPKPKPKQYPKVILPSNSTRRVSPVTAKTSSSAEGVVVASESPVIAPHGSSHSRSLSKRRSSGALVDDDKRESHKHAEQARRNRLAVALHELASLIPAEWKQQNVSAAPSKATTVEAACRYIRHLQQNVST
Experiment: relative binding free energy (BET-seq); higher = weaker binding
Settings: reference: library average

Row | Sequence | relative binding free energy [kcal/mol]
1 | AGCTTCACGTGTGGGC | 0.12
2 | GATAGCACGTGTGCGT | 0.02
3 | GGGGGCACGTGTAGAT | 0.14
4 | TGGATCACGTGTTGGT | 0.22
5 | TTTCTCACGTGCGTAT | 0.33
6 | TAGGGCACGTGGCACG | -0.05
7 | GGGTTCACGTGTCTAG | 0.41
8 | GTCGTCACGTGAGTAT | 0.46
9 | TGGTTCACGTGACGCT | 0.25
10 | GTAAGCACGTGATTTT | 0.13
11 | TTATGCACGTGGGGGT | -0.22
12 | ATAGTCACGTGCGTTG | 0.02
13 | TTGAGCACGTGTGAGC | 0.14
14 | TTAGTCACGTGTTAGT | 0.14
15 | GTGCGCACGTGTTGTA | -0.17
16 | GGGTGCACGTGGAGTC | -0.1
17 | CTCGGCACGTGGTTGG | -0.04
18 | CTGGGCACGTGAATGG | 0.1
19 | TGGCACACGTGTAGGG | 0.04
20 | AAATTCACGTGTAGGA | 0.24
21 | TAAGGCACGTGAGGTA | 0.1
22 | TTGATCACGTGATTAT | 0.27
23 | GTGATCACGTGCATGG | 0.16

Row | Sequence | relative binding free energy [kcal/mol]
24 | ATGCGCACGTGAGTTG | 0.18
25 | ATGATCACGTGTGCGG | 0.05
26 | TGAGGCACGTGCATGT | -0.1
27 | GTTTGCACGTGGCGGC | -0.06
28 | GCTGTCACGTGGGAAG | 0.1
29 | TCGTGCACGTGGTAAA | 0.07
30 | TGATACACGTGAGTGA | 0.11
31 | GCAATCACGTGTTTTT | 0.18
32 | GATATCACGTGAGGGT | 0.32
33 | CAGGTCACGTGATATT | 0.18
34 | ACGGGCACGTGTCGGG | -0.08
35 | GATTTCACGTGGCGTA | 0.23
36 | AGGCACACGTGGTGGC | -0.1
37 | AGTTCCACGTGAGGTT | 0.22
38 | GAGGGCACGTGCAGTG | -0.06
39 | GTGCTCACGTGGCGTA | 0.15
40 | AATGGCACGTGGCGGT | -0.22
41 | ATAGTCACGTGACGGT | 0.09
42 | TTATACACGTGGGATG | 0
43 | GGTCACACGTGGGTTT | 0
44 | GTGATCACGTGCTTGT | 0.07
45 | TATGACACGTGGGGGT | -0.18
46 | TTTTGCACGTGAGGCG | 0.33

Row | Sequence | relative binding free energy [kcal/mol]
47 | GTTTGCACGTGTAGCC | 0.24
48 | AGAGACACGTGATAGG | 0.1
49 | AAGCTCACGTGTGGGG | 0.11
50 | TATTCCACGTGTAGGT | -0.02
51 | CAGTGCACGTGGGGTA | -0.3
52 | TGTAGCACGTGGGTGA | -0.16
53 | GAATTCACGTGTAGGG | 0.33
54 | AGTGGCACGTGGTAGA | -0.09
55 | GCGCGCACGTGGGGGG | -0.24
56 | TGTCACACGTGGCGTT | -0.07
57 | CTGTCCACGTGTGTTT | 0
58 | TTCGGCACGTGCGGAT | -0.11
59 | TGAGGCACGTGGTCAT | -0.16
60 | ATAGTCACGTGATTGG | 0.34
61 | GTTTGCACGTGAGACG | 0.27
62 | TATGACACGTGAAGTA | 0.12
63 | TTATGCACGTGTCTAT | -0.2
64 | AAGTTCACGTGCGCGG | 0.2
65 | TTCGGCACGTGAAGGA | 0.31
66 | GTTTACACGTGGCGCT | 0.17
67 | TCCGTCACGTGGCGGG | 0.2
68 | GTTCTCACGTGTCTGT | 0.23
69 | CTGTCCACGTGAGTTT | 0.44

Row | Sequence | relative binding free energy [kcal/mol]
70 | AATGACACGTGTGGAT | 0.01
71 | CTGTACACGTGAGTTT | 0.28
72 | GTCTGCACGTGCAGGT | 0.22
73 | GGGATCACGTGAAGAT | 0.48
74 | AGGCACACGTGAAGTG | 0.33
75 | TAAATCACGTGGGTAA | -0.02
76 | TGACTCACGTGTGTCG | 0.23
77 | TTAGGCACGTGCAGTG | -0.09
78 | GCGGACACGTGGCTGG | 0.07
79 | GCCGGCACGTGGGCGT | -0.2
80 | TTGGACACGTGACTGT | 0.11
81 | GTTTACACGTGGGGGT | -0.06
82 | TGTGGCACGTGATCGG | -0.05
83 | AAGAGCACGTGTGGGC | -0.06
84 | TTTGACACGTGGATTC | 0.07
85 | GCTGTCACGTGGTTGT | 0.11
86 | GTTATCACGTGCTGAG | 0.2
87 | TTTGGCACGTGGATAC | -0.11
88 | TAGAGCACGTGAAGGA | 0.12
89 | GTGATCACGTGTTGGT | 0.15
90 | GGCGACACGTGGGTAT | -0.09
91 | TGATCCACGTGGGATG | -0.07
92 | GGCGGCACGTGTCAGG | -0.14

Row | Sequence | relative binding free energy [kcal/mol]
93 | GGAGTCACGTGTTTCT | 0.16
94 | ATCATCACGTGTGTTA | 0
95 | ATTAGCACGTGTTAGA | -0.11
96 | TAGAGCACGTGTGATA | -0.09
97 | AATTTCACGTGGGGGC | 0.16
98 | ACGTACACGTGTGAGG | 0.11
99 | GGCTTCACGTGGGTTG | 0.16
100 | TTGTACACGTGTGTTG | 0.12
101 | TAGGACACGTGGTCTG | -0.07
102 | TTCAGCACGTGGATTT | -0.1
103 | TCGGTCACGTGGTCAG | 0.08
104 | AGTAGCACGTGGGATG | -0.17
105 | CGTTACACGTGGGGAT | -0.16
106 | TGGGGCACGTGATGAC | 0.16
107 | GGGGGCACGTGGCTGC | -0.05
108 | GTTGACACGTGTGTGG | 0.11
109 | TTTATCACGTGTTTAA | 0.23
110 | TGTTTCACGTGTAGCC | 0.37
111 | TTAATCACGTGAATTG | 0.27
112 | TTACGCACGTGAGGGA | 0.17
113 | TGTATCACGTGATTCA | 0.24
114 | TGGGTCACGTGTAGCG | 0.13
115 | CGGGTCACGTGTAAAT | 0.21
